Among all 270,000 compounds or so, about 5,800 (2.1%) were called active. The shares of active, inactive and inconclusive entries below differ from those in the screen. Calls follow the shape of the dose curve; as a rule, active = well fitted inhibition curve with a large enough effect; inconclusive = small, poorly fitted or top-dose-only effect; inactive = flat fitted curve, though single readings scatter. Potencies beside an inconclusive call are fits to weak or partial responses and may not hold up.
The compounds below were run against Microtubule-associated protein tau (Homo sapiens) (UniProt P10636) (assay: qHTS for Inhibitors of Tau Fibril Formation, Thioflavin T Binding). Details: recombinant tau K18 P301L (four-repeat tau fragment), heparin-induced fibrillization, ThT fluorescence; series mostly up to 57.4 µM; activity, negative = inhibition: at the top concentration.
Sequence of UniProt P10636 (P10636 whole entry, looked up, the tested form may be a part): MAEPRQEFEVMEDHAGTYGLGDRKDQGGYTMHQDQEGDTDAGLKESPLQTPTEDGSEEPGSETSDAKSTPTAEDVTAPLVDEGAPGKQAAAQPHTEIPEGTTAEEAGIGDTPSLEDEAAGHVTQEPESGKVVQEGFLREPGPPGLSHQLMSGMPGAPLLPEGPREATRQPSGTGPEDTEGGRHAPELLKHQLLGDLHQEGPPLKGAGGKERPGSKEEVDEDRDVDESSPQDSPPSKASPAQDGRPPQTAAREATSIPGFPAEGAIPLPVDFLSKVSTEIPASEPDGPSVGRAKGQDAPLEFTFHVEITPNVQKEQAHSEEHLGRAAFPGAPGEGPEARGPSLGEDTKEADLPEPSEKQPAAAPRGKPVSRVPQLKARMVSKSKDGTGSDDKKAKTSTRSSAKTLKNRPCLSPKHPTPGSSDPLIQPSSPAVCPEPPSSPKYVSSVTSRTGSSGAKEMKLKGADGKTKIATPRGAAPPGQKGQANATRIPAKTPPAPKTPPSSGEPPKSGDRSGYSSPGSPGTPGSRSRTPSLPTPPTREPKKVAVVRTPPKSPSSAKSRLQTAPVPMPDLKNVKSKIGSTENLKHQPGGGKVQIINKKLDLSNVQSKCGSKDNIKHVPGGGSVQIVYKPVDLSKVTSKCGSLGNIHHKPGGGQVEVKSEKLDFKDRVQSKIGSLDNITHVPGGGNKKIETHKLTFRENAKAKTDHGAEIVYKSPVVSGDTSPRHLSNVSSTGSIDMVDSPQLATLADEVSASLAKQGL
In short: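 Recombinant human tau K18 fragment […] carrying P301L, 15 uM unlabeled plus 0.24 uM Alexa 594-labeled, was fibrillized with 20 uM heparin in 100 mM sodium acetate pH 7 for 6 hr at 37 C; 30 uM ThT fluorescence read after 1 hr.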
With `Cc1cccc2sc(NC(=O)CN(C)S(=O)(=O)c3cccs3)nc12` the “activity, negative = inhibition” value was inactive: -17.4%. For `O=c1[nH]c(NNC(=S)NC2CCCCC2)nc2c1C1(CCCC1)Cc1ccccc1-2`, the “activity, negative = inhibition” value was inactive: 2.53%. In the case of `COc1ccc(OC)c(C(c2nnnn2C2CCCC2)N2CCc3ccccc3C2)c1` (stereo not drawn), the Potency was inconclusive: 15.8 µM [inhibitor, partial curve]. For `O=C(CCn1cnc2ccccc2c1=O)Nc1nc2c(s1)CCCC2`, the Potency was inconclusive: 20 µM [inhibitor, partial curve]. With `O=C(Nc1ccc2oc(-c3ccc(O)c(Br)c3)nc2c1)c1cc2ccccc2o1` the Potency was inconclusive: 0.562 µM [inhibitor, full curve, poor fit]. With `CCOC(=O)C1=C(O)/C(=C/c2cn(CC(=O)N3CCCC3)c3ccccc23)SC1=Nc1ccccc1` the Potency was inconclusive: 12.6 µM [inhibitor, partial curve, poor fit]. In the case of `COC(=O)C(NNc1ccccc1)(NC(=O)c1ccccc1F)C(F)(F)F` (stereo not drawn), the Potency was inconclusive: 39.8 µM [inhibitor, single point]. For `CN(Cc1ccco1)C(=O)c1ccc2c(c1)N(Cc1ccccc1F)C(=O)c1ccccc1S2`, the “activity, negative = inhibition” value was inactive: -10.1%. For `COCCn1c(SCc2nc3sc(C(=O)OC)c(C)c3c(=O)[nH]2)nc2ccccc21`, the Potency was inconclusive: 1.78 µM [inhibitor, full curve, poor fit]. With `CCCCn1c(SCC(=O)NCc2ccco2)nnc1-c1ccoc1C` the Potency was inconclusive: 17.8 µM [inhibitor, single point]. With `Cc1cc(C(=O)CSc2nc(N)cc(=O)[nH]2)c(C)n1-c1ccc(OC(F)F)cc1` the “activity, negative = inhibition” value was inactive: -9.69%. In the case of `O=C(O)C1CCC[C@@H]2[C@@H]3CC(CN12)[C@@H]1CCCCN1C3` (stereo partly drawn), the “activity, negative = inhibition” value was inactive: -5.14%. `COC(=O)c1ccccc1OC(=O)c1cc[n+]([O-])cc1` was tested, and the Potency was inconclusive: 14.1 µM [inhibitor, partial curve]. For `COCCNC(=O)c1ccc2c(c1)NC(=O)CS2`, the “activity, negative = inhibition” value was inactive: -4.07%. With `Cc1c(NC(=S)NC(=O)c2sc3ccccc3c2Cl)cccc1C(=O)O` the Potency was inconclusive: 12.6 µM [inhibitor, partial curve]. In the case of `C=CCn1c(Cc2nc3ccc(Cl)cc3[nH]2)n[nH]c1=S`, the Potency was inconclusive: 20 µM [inhibitor, partial curve]. With `COc1cc(OC)c2c(C)c(Cl)c(=O)oc2c1` the Potency was inconclusive: 2.24 µM [inhibitor, partial curve]. With `CCCCCn1c(N)c(-c2nc3ccccc3s2)c2c([N+](=O)[O-])nn(CC)c(=O)c21` the Potency was inconclusive: 3.98 µM [inhibitor, full curve]. `Nc1c(C(=O)Nc2nc3ccccc3s2)sc2nc(-c3cccs3)ccc12` was tested, and the Potency was inconclusive: 3.16 µM [inhibitor, full curve]. With `Cc1nc(SCC(=O)N2CCN(C(=O)c3ccco3)CC2)c2c(C)c(C)sc2n1` the Potency was inconclusive: 22.4 µM [inhibitor, partial curve]. `COCc1cc(C)nc(N2CCN(c3ccccc3)CC2)c1C#N` was tested, and the Potency was inconclusive: 20 µM [inhibitor, partial curve, poor fit]. For `CCc1ccc(CC)c(S(=O)(=O)Nc2ccc(O)c(C(=O)O)c2)c1`, the Potency was inconclusive: 1.12 µM [inhibitor, single point]. For `COc1ccc(OCCNc2cc(Cl)ccc2[N+](=O)[O-])cc1`, the Potency was inconclusive: 2 µM [inhibitor, full curve]. In the case of `COc1ccc(NC(=O)C2CCN(Cc3cnn(-c4ccccc4)c3-n3cccc3)CC2)cc1OC`, the “activity, negative = inhibition” value was inactive: 4.02%. For `COc1ccc(-c2nc(-c3ccc(O)cc3O)cs2)cc1OC`, the Potency was inconclusive: 4.47 µM [inhibitor, full curve]. In the case of `CN(C(=O)c1ccncc1)c1nnc(-c2cccnc2)s1`, the “activity, negative = inhibition” value was inactive: -10%. `Cc1ccc(Cl)cc1NC(=O)CCC(=O)N1CC(C)Sc2ccccc21` (stereo not drawn) was tested, and the “activity, negative = inhibition” value was inactive: -16.2%. For `Cc1nc2sc(C(c3ccco3)N3CCC(Cc4ccccc4)CC3)c(O)n2n1` (stereo not drawn), the Potency was inconclusive: 35.5 µM [inhibitor, single point]. `Cc1cc(C)nc(SCC(=O)Nc2ccccc2[N+](=O)[O-])n1` was tested, and the “activity, negative = inhibition” value was inactive: -10.1%. `Cc1ccc(-c2nc3cnccn3c2Nc2ccc3c(c2)OCO3)o1` was tested, and the “activity, negative = inhibition” value was inactive: -17.7%. `CC(=O)N1CCc2c(sc3c2c(=O)n(-c2ccccc2)c(=O)n3CC(=O)Nc2ccccc2)C1` was tested, and the “activity, negative = inhibition” value was inactive: 3.41%. For `COc1cc(-c2nnc(SC/C=C/c3ccccc3)n2N)cc(OC)c1OC`, the “activity, negative = inhibition” value was inactive: -13.7%. `COc1ccc(N2CCN(c3c(S(=O)(=O)c4ccccc4)cnc4ccc(OC)cc34)CC2)cc1` was tested, and the Potency was inconclusive: 15.8 µM [inhibitor, partial curve, poor fit]. In the case of `COC(=O)c1ccccc1OCCCOc1ccc(C)cc1OC`, the Potency was inconclusive: 12.6 µM [inhibitor, partial curve]. In the case of `CC(=O)N1CCc2cc(C(=O)CN3CCN(C(=O)c4ccco4)CC3)ccc21`, the Potency was inconclusive: 11.2 µM [inhibitor, partial curve]. `COC(=O)c1cc2sc(C)cc2n1CC(=O)Nc1ccc(C)c(C)c1` was tested, and the “activity, negative = inhibition” value was inactive: -11%. With `Cc1cccc(N2CCN(S(=O)(=O)c3cccc4nonc34)CC2C)c1` (stereo not drawn) the “activity, negative = inhibition” value was inactive: 3.8%. For `O=C(CSCc1cc(=O)[nH][nH]1)Nc1ccc(F)cc1`, the Potency was inconclusive: 7.94 µM [inhibitor, partial curve]. `O=[N+]([O-])c1ccc(/C=N/NC(=S)Nc2ccccc2C(F)(F)F)o1` was tested, and the Potency was inconclusive: 15.8 µM [inhibitor, partial curve]. For `CCOC(=O)C1(Cc2ccc(OC)cc2)CCN(C(=O)c2cc3ccccc3[nH]2)CC1`, the Potency was inconclusive: 12.6 µM [inhibitor, partial curve, poor fit]. With `O=C(CCl)NNc1cccc(Cl)n1` the Potency was active: 14.1 µM. For `O=C(Cc1ccccc1)N/N=C/C=C/c1cccc([N+](=O)[O-])c1`, the Potency was inconclusive: 14.1 µM [inhibitor, partial curve, poor fit]. In the case of `CN(C)c1ccc(/C=C2\CCC/C(=C\c3ccccc3)C2=O)cc1`, the Potency was active: 2 µM. In the case of `CC1=C(C(=O)OCC(C)C)C23C(=O)c4ccccc4C2(O1)OC(N)=C3C#N` (stereo not drawn), the Potency was inconclusive: 15.8 µM [inhibitor, single point]. With `O=S(=O)(O)c1ccc(N=Nc2ccccc2)cc1` the “activity, negative = inhibition” value was inactive: -15.4%. In the case of `Cc1ccccc1OCCNC(=O)c1ccc2ccccc2n1`, the Potency was inconclusive: 17.8 µM [inhibitor, single point]. With `CCOC(=O)c1c(NC(=O)c2nc(SCC)ncc2Cl)sc(C(C)=O)c1C` the “activity, negative = inhibition” value was inactive: -5.19%. For `C=CCn1c(CCNC(=O)c2ccc(Cl)c(Cl)c2)nnc1SCCOc1ccc(OC)cc1`, the Potency was inconclusive: 17.8 µM [inhibitor, single point]. With `COc1ccc(N=C2S/C(=C\c3ccc(OCC(=O)O)cc3)C(=O)N2CCc2c[nH]c3ccccc23)cc1` the “activity, negative = inhibition” value was inactive: 6.96%. `COc1ccc(NC(=O)c2cc3c(-c4ccc(OC)c(OC)c4)nn(C)c3s2)cc1OC` was tested, and the Potency was inconclusive: 3.55 µM [inhibitor, single point]. With `COc1ccc(/C=C/C(=O)c2ccc3c(c2)OCCO3)cc1[N+](=O)[O-]` the Potency was inconclusive: 3.98 µM [inhibitor, full curve]. In the case of `CCc1c(C)sc(NC(=O)c2ccco2)c1C(=O)N1CCOCC1`, the “activity, negative = inhibition” value was inactive: 4.37%. For `CC(=O)c1ccc(N2CCN(C(=O)CCCn3c(=S)[nH]c4cc5c(cc4c3=O)OCO5)CC2)cc1`, the Potency was inconclusive: 0.199 µM [inhibitor, full curve]. In the case of `C/C(=N\N=C1/NC(=O)C(C)S1)c1ccc([N+](=O)[O-])cc1` (stereo not drawn), the Potency was inconclusive: 12.6 µM [inhibitor, partial curve]. With `O=C(COc1ccccc1Cl)OCc1cc(=O)n2nc(-c3cccs3)sc2n1` the Potency was inconclusive: 0.199 µM [inhibitor, full curve]. For `CCOC(=O)N1c2ccccc2Sc2ccccc21`, the “activity, negative = inhibition” value was inactive: -3.63%. `CCn1c(SCC(=O)Nc2ccc(OCc3ccccc3)cc2)nnc1-c1ccco1` was tested, and the Potency was inconclusive: 14.1 µM [inhibitor, partial curve]. With `Cc1ccc(-c2csc(Nc3ccc(S(N)(=O)=O)cc3)n2)o1` the Potency was inconclusive: 15.8 µM [inhibitor, partial curve]. In the case of `COc1ccc(-c2cc(-c3n[nH]c(=S)n3-c3ccccc3OC)[nH]n2)cc1`, the Potency was inconclusive: 20 µM [inhibitor, single point]. In the case of `O=C(O)c1cccc(-c2ccc(/C=N/NC(=O)C3COc4ccccc4O3)o2)c1` (stereo not drawn), the Potency was inconclusive: 10 µM [inhibitor, partial curve]. In the case of `O=C(CNc1cccc2ccccc12)N/N=C/c1cccc(Oc2ccccc2)c1`, the Potency was inconclusive: 11.2 µM [inhibitor, partial curve]. In the case of `CCc1c(C)sc(NC(=O)c2noc(C)c2[N+](=O)[O-])c1C#N`, the Potency was inconclusive: 39.8 µM [inhibitor, single point]. For `c1ccc(N2CCN(c3ccccc3)C2c2cccnc2)cc1`, the Potency was inconclusive: 28.2 µM [inhibitor, single point]. For `COc1ccc(N=Nc2ccc(O)c(P(=O)(c3ccccc3)c3ccccc3)c2)cc1`, the Potency was inconclusive: 1.78 µM [inhibitor, full curve, poor fit]. With `CSc1sc(C(=O)NC(=O)NCc2cccnc2)c(C)c1-c1ccon1` the Potency was inconclusive: 14.1 µM [inhibitor, partial curve, poor fit]. With `CCC(=O)N1CCc2cc(Br)cc(S(=O)(=O)CCC(=O)N3CCN(c4cccc(C(F)(F)F)c4)CC3)c21` the Potency was inconclusive: 44.7 µM [inhibitor, single point]. For `Cc1ccc(NC(=O)C2CCCN(c3nnc(C)c4c(C)n(-c5ccccc5)nc34)C2)c(Cl)c1` (stereo not drawn), the “activity, negative = inhibition” value was inactive: -12.2%. In the case of `CN1CCN/C1=C(/C(Cl)=C(Cl)Cl)[N+](=O)[O-]`, the Potency was inconclusive: 25.1 µM [inhibitor, single point].
% is scaled to controls: 0 for no effect and ±100 for the full control effect; potency is read from the fitted curve at half-maximal effect; tags tell the direction and shape of the fitted curve.
Also: nearly all actives have a fitted effect of over 55% in size.
